{
  "source": "PubChem BioAssay AID652104",
  "about": "(National Center for Advancing Translational Sciences (NCATS), 2013)",
  "note": "In all, about 410,000 compounds went through this assay and about 7,200 (1.8%) were called active. The inconclusive results got no clear call from the source; some entries with a clear call stand among them for comparison. Calls follow the shape of the dose curve; as a rule, active = well fitted activation curve with a large enough effect; inconclusive = small, poorly fitted or top-dose-only effect, or another doubt; inactive = no such curve, though single readings can be large or run the other way. No potency is given beside an inconclusive call; the fits are too rough. Potency is read from the fitted curve at half-maximal effect; tags tell the direction and shape of the fitted curve.",
  "data": [
    {"assay": "qHTS of TDP-43 Inhibitors; also: nearly all actives have a fitted effect of over 50% in size; as to growth rescue (activation): % of control where 0% means no effect", "conditions": "TDP-43 expressing yeast growth rescue, BacTiter-Glo, 24 h; growth rescue (activation): at 46.1 µM (top of the series) unless noted", "outline": "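Cell-based yeast growth screen: TDP-43 expression induced in galactose, inoculum OD600=0.02 after raffinose pregrowth to mid-log. Read-out BacTiter-Glo luminescence at 24 hr, 30 deg C; inhibition of toxicity seen as signal increase.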", "values": [
      {"smiles": "CCOc1ccc(CNC(=O)c2sc3ncnc(N(C)C4CCCCC4)c3c2C)cc1", "Potency": "inconclusive [activator, single point]"},
      {"smiles": "O=C(c1ccco1)c1cc2c(ccc3ccccc32)oc1=O", "Potency": "inconclusive [activator, single point]"},
      {"smiles": "O=C(COC(=O)c1c(F)cccc1Cl)NCC1CCCCC1", "Potency": "inconclusive [activator, single point]"},
      {"smiles": "CN=C(Nc1cc(Cl)ccc1Cl)SC1CC(=O)N(c2ccc(C(=O)OC)cc2)C1=O", "note": "(stereo unspecified)", "Potency": "active: 25.1 µM"},
      {"smiles": "Cc1cc2ccccn2c1C(=S)NC(=O)c1ccccc1", "Potency": "inconclusive [activator, full curve, poor fit]"},
      {"smiles": "Oc1ccccc1N=Nc1ccccc1O", "Potency": "inconclusive [activator, partial curve, poor fit]"},
      {"smiles": "CCCn1c(=O)[nH]c(=O)c2[nH]cnc21", "Potency": "inconclusive [activator, partial curve, poor fit]"},
      {"smiles": "COC(=O)c1cccc(Nc2nn3c(=O)c4cc5c(cc4nc3s2)OCO5)c1", "growth rescue (activation)": "inactive: 0%"},
      {"smiles": "CN(CC(=O)Nc1ccc(Cl)cc1)C(=O)c1sccc1-c1ccccc1", "Potency": "active: 22.4 µM"},
      {"smiles": "O=c1[nH]c(=S)[nH]nc1Cc1ccc(Cl)c(Cl)c1", "Potency": "inconclusive [activator, single point]"},
      {"smiles": "CCCNC(=S)N1CCN(c2nc(-c3cccc(OC)c3)cs2)CC1", "Potency": "inconclusive [activator, single point]"},
      {"smiles": "CC1(c2ccc(F)cc2)OC(=O)c2c1ccc1ccccc21", "note": "(stereo unspecified)", "Potency": "active: 12.6 µM"},
      {"smiles": "C=CCn1c2ccccc2c(=O)c2cc(C#CC3(O)CCCCC3)ccc21", "growth rescue (activation)": "inactive: 10.3%"},
      {"smiles": "Cc1cccc(NC(=S)NNC(=O)c2csc3c2CCC(C)C3)c1", "note": "(stereo unspecified)", "Potency": "inconclusive [activator, partial curve]"},
      {"smiles": "COc1cccc(CNc2ccc([N+](=O)[O-])cc2C)c1", "Potency": "active: 15.8 µM"},
      {"smiles": "Cc1cc(C)c(S(=O)(=O)c2ccc(F)cc2)c(C)c1", "Potency": "inconclusive [activator, partial curve]"},
      {"smiles": "CC(O)[C@H]1CNCCN1CCc1cccc(F)c1", "note": "(stereo partly specified)", "Potency": "inconclusive [activator, full curve, poor fit]"},
      {"smiles": "CC(=O)Nc1ccccc1OCC(=O)c1cc(C)n(Cc2cccs2)c1C", "Potency": "active: 22.4 µM"},
      {"smiles": "CCN(C(=O)CSc1nc2ccccc2nc1Cc1cccc(OC)c1)c1cccc(C)c1", "growth rescue (activation)": "inactive: -8.32%"},
      {"smiles": "Cc1ccc(NC(=O)Nc2nc3c(s2)CCCCCC3)cc1C", "Potency": "inconclusive [activator, partial curve]"},
      {"smiles": "COc1ccccc1Cc1c(-c2ccc(F)cc2)nc2ccc(Cl)cn12", "Potency": "inconclusive [activator, partial curve]"},
      {"smiles": "CN1CCN(CCCNC(=O)c2ccc(/C=C3\\Oc4ccccc4N(Cc4ccc(Cl)cc4)C3=O)cc2)CC1", "Potency": "inconclusive [activator, single point]"},
      {"smiles": "CC(C)NCC(O)COc1ccc(CCOCC2CC2)cc1", "note": "(stereo unspecified)", "Potency": "inconclusive [activator, partial curve]"},
      {"smiles": "CCCCOc1ccc(C(=O)NCCS(=O)(=O)N2CCN(c3ccccc3OC)CC2)cc1", "Potency": "active: 12.6 µM"},
      {"smiles": "CCC(=O)Nc1ccc(NC(=O)CSc2nnnn2-c2ccc3c(c2)OCCO3)cc1", "growth rescue (activation)": "inactive: -17.8%"},
      {"smiles": "c1ccc(Cn2nnnc2C(c2cccnc2)N2CCN(c3ccccc3)CC2)cc1", "note": "(stereo unspecified)", "Potency": "inconclusive [activator, single point]"},
      {"smiles": "Cc1nonc1C1CCCN1C(=O)c1cc(COc2ccc(F)cc2Cl)on1", "note": "(stereo unspecified)", "Potency": "inconclusive [activator, partial curve]"},
      {"smiles": "COc1ccccc1N1CCN(S(=O)(=O)c2cc(-c3cc(C)no3)ccc2C(C)C)CC1", "growth rescue (activation)": "inactive: -2.8%"},
      {"smiles": "Cc1ccc(S(=O)(=O)N(CC(=O)Nc2ccc(C)c(Cl)c2)C(=O)N2CCN(C)CC2)cc1", "growth rescue (activation)": "inactive: -7.94%"},
      {"smiles": "S=C(Nc1ccccc1)N1CCc2ccccc21", "Potency": "active: 12.6 µM"},
      {"smiles": "O=C(NCC1CC1)c1cc2c(c(-c3cccc(-c4ccccc4F)c3)n1)[C@@H](CCO)N(C(=O)CC1CC1)C2", "Potency": "inconclusive [activator, single point]"},
      {"smiles": "COc1ccc(Cl)cc1Cn1c(C)c(C(=O)NCc2ccc(F)cc2)sc1=O", "Potency": "active: 20 µM"},
      {"smiles": "O=C1CCC(C(=O)N2CCc3c(Cl)cccc3C2)CN1CCCN1CCOCC1", "note": "(stereo unspecified)", "Potency": "inconclusive [activator, full curve, poor fit]"},
      {"smiles": "CN1/C(=C/C(=S)NC(=O)C2CCC2)C(C)(C)c2ccccc21", "Potency": "inconclusive [activator, single point]"},
      {"smiles": "Cn1c(SCc2cccc3ccccc23)nnc1-c1ccco1", "Potency": "inconclusive [activator, single point]"},
      {"smiles": "COc1ccccc1C(=O)Nc1cccc(OCc2cc(=O)n3c4c(sc3n2)CCCC4)c1", "growth rescue (activation)": "inactive: 7.45%"},
      {"smiles": "COc1ccccc1Nc1nn2c(=O)c3ccc(C(=O)NC4CCC(C)CC4)cc3nc2s1", "note": "(stereo unspecified)", "growth rescue (activation)": "inactive: 6.77%"},
      {"smiles": "CCOc1ccc(NC(=O)CN(C)C(=O)c2ccc(N3CCCCC3)c([N+](=O)[O-])c2)cc1OCC", "Potency": "inconclusive [activator, partial curve]"},
      {"smiles": "COc1ccccc1-c1cc(NC(C)=O)c2ncc(-c3cccc(C(F)(F)F)c3)n2c1", "Potency": "inconclusive [activator, single point]"},
      {"smiles": "CC(=O)CSc1nc2cc3c(cc2cc1C#N)OCCO3", "Potency": "inconclusive [activator, partial curve]"},
      {"smiles": "O=C(O)c1cccc(Oc2ccc([N+](=O)[O-])cc2)c1", "Potency": "active: 17.8 µM"},
      {"smiles": "CCN(C(=O)CSc1nc(-c2ccccc2)no1)c1cccc(C)c1", "growth rescue (activation)": "inactive: 16.3%"},
      {"smiles": "CCOC(=O)c1ccc(NC(=O)c2nn(C)cc2Br)cc1", "growth rescue (activation)": "inactive: 8.23%"},
      {"smiles": "O=C1c2ccccc2C2=Nc3ccccc3SC(c3cccc(F)c3)C12", "note": "(stereo unspecified)", "Potency": "inconclusive [activator, single point]"},
      {"smiles": "CO[C@H]1CN(C)C(=O)c2cc(NC(=O)c3cc(C)on3)ccc2OC[C@@H](C)N(C(=O)C2CC2)C[C@H]1C", "growth rescue (activation)": "inactive: 28.4%"},
      {"smiles": "COc1cccc(CNc2ncnc3c2nnn3C)c1", "Potency": "inconclusive [activator, partial curve]"},
      {"smiles": "CC(=O)[C@@]1(O)CC[C@H]2[C@@H]3C[C@H](C)C4=CC(=O)C=C[C@]4(C)[C@@]3(F)[C@@H](O)C[C@@]21C", "Potency": "inconclusive [activator, partial curve, poor fit]"},
      {"smiles": "O=C(Nc1cccc(C(=O)N2CCN(c3ccccc3)CC2)c1)c1nsc2ccccc12", "Potency": "inconclusive [activator, single point]"},
      {"smiles": "COc1ccc(Cl)cc1NC(=O)CNCc1cccs1", "growth rescue (activation)": "inactive: 8.12%"},
      {"smiles": "Cc1ccc(-c2nnc(COc3cccc(-n4cnnn4)c3)o2)cc1", "Potency": "inconclusive [activator, partial curve]"},
      {"smiles": "O=Cc1ccc2ccc3cccnc3c2n1", "Potency": "inconclusive [activator, single point]"},
      {"smiles": "COCCn1c(C)cc(C(=O)CSc2nc3ccccc3o2)c1C", "Potency": "inconclusive [activator, full curve]"},
      {"smiles": "O=C(OCc1cc(=O)n2nc(C3CC3)sc2n1)c1ccc(NC(=O)c2ccccc2Cl)cc1", "growth rescue (activation)": "inactive: -10.2%"},
      {"smiles": "CC1=Nc2cc(C(=O)O)ccc2Sc2ccc(C)cc21", "Potency": "active: 12.6 µM"},
      {"smiles": "Cc1cc2ccccc2n1CCNC(=O)c1ccccc1F", "Potency": "inconclusive [activator, partial curve]"},
      {"smiles": "Cc1cc(-n2c(C)cc(C(=O)CSc3nnnn3-c3ccccc3)c2C)no1", "Potency": "inconclusive [activator, single point]"},
      {"smiles": "O=C(c1cn(-c2ccccc2)nc1-c1cccnc1)N1CCCC(C(F)(F)F)C1", "note": "(stereo unspecified)", "growth rescue (activation)": "inconclusive: 42% [activator]"},
      {"smiles": "CCc1ccc(NCc2cc3ccc(OC)cc3n(CC(=O)Nc3ccccc3OC)c2=O)cc1", "growth rescue (activation)": "inactive: 0%"},
      {"smiles": "COC(=O)c1sc2cccc(F)c2c1S(=O)(=O)NC(C)c1ccccc1", "note": "(stereo unspecified)", "Potency": "inconclusive [activator, single point]"},
      {"smiles": "Cc1ccc(C(=O)NCCSc2c[nH]c3ccccc23)cc1C", "Potency": "inconclusive [activator, partial curve]"},
      {"smiles": "O=C(c1ccc(F)cc1)c1ccc(CN2C(=O)c3ccccc3C2=O)o1", "Potency": "active: 12.6 µM"},
      {"smiles": "Cc1ccc(-c2cc(C(=O)O)c3cc(Br)ccc3n2)o1", "Potency": "inconclusive [activator, partial curve, poor fit]"},
      {"smiles": "COc1ccccc1OCCn1cc(C(=O)c2ccco2)c2ccccc21", "Potency": "inconclusive [activator, single point]"},
      {"smiles": "CCOc1ccccc1NC(=O)CSc1ccc([N+](=O)[O-])cc1", "Potency": "inconclusive [activator, partial curve]"},
      {"smiles": "CN(C)C(=O)CNc1ccn2nc(-c3cccc(Cl)c3)cc2n1", "Potency": "inconclusive [activator, partial curve]"},
      {"smiles": "N#CCc1nc(-c2cc3ccccc3oc2=O)cs1", "growth rescue (activation)": "inactive: -11.5% [at 0.397 µM]"},
      {"smiles": "CN1CCN(c2ncnc3c2ncn3[C@H]2CN(C)C[C@@H](CO)O2)CC1", "Potency": "inconclusive [activator, partial curve]"},
      {"smiles": "Cc1nnc(NN2CCOCC2)[nH]c1=O", "growth rescue (activation)": "inactive: -12.6%"},
      {"smiles": "Cc1ccc(CNS(=O)(=O)c2ccc3c(c2)OCCO3)cc1", "Potency": "inconclusive [activator, single point]"},
      {"smiles": "Cc1noc(-c2ccc(N(C)Cc3ccccc3)c([N+](=O)[O-])c2)n1", "Potency": "inconclusive [activator, partial curve]"},
      {"smiles": "COc1ccc(N2CC(C(=O)Nc3nc4ccc(OC)cc4s3)CC2=O)cc1", "note": "(stereo unspecified)", "Potency": "inconclusive [activator, partial curve]"}
    ]}
  ]
}
